# Reference: PubChem BioAssay AID1460 (National Center for Advancing Translational Sciences (NCATS), 2008)
# Values joined by “and” are separate entries in the source; they are usually repeats but may differ in a detail not shown here. Equal entries are not always repeated. Screen size: about 270,000 compounds; about 5,800 (2.1%) were called active. This list was built around the results that the source calls inconclusive (neither active nor inactive); the mix of calls is not that of the screen. The call rests on the fitted dose curve; in most records, active means well fitted inhibition curve with a large enough effect; inconclusive means small, poorly fitted or top-dose-only effect; inactive means flat fitted curve, though single readings scatter. A potency beside an inconclusive call is a rough fit, not a confirmed value.
# Biological target: Microtubule-associated protein tau (Homo sapiens) (UniProt P10636)
# Chain of UniProt P10636 (P10636 whole entry, looked up): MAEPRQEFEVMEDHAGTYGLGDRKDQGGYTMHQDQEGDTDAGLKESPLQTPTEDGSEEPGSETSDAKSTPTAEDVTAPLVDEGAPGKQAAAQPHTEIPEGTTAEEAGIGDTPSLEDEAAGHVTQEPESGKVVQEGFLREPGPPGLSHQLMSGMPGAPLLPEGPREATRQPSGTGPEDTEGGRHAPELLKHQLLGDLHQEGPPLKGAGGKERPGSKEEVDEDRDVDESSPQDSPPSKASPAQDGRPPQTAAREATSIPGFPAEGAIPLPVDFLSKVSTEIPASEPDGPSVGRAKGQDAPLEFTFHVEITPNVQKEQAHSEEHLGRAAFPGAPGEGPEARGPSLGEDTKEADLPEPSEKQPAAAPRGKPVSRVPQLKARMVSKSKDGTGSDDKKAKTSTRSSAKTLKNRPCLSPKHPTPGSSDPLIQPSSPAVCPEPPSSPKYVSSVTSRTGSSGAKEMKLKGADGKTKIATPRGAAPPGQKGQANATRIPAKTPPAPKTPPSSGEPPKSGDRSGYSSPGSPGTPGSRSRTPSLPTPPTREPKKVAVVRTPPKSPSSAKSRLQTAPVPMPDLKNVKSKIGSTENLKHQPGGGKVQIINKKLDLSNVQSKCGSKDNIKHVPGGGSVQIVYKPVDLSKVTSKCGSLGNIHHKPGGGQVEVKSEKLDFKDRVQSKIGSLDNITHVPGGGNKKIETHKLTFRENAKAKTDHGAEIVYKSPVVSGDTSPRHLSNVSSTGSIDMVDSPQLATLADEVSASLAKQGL
# Experiment: qHTS for Inhibitors of Tau Fibril Formation, Thioflavin T Binding; further: nearly all actives have a fitted effect of over 55% in size
# Conditions: recombinant tau K18 P301L (four-repeat tau fragment), heparin-induced fibrillization, ThT fluorescence; series mostly up to 57.4 µM
# Procedure, shortened: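 Heparin-induced (20 uM) aggregation of recombinant human K18 P301L tau, 15 uM unlabeled with 0.24 uM labeled, pH 7 acetate buffer, 6 hr at 37 C with compound. Fibrils quantified by 30 uM ThT fluorescence after 1 hr ambient incubation.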
# Potency means the concentration at half of the fitted maximal effect; tags describe the fitted curve by direction and shape.
row,SMILES,Potency
1,CCOC(=O)C1=C(C)OC(N)=C(C#N)C1c1cc2c(cc1Br)OCO2 (stereo unspecified),"inconclusive: 22.4 µM [inhibitor, single point]"
2,C=CCC(CC(O)COCCC)C(=O)NNC(=S)Nc1ccccc1 (stereo unspecified),"inconclusive: 22.4 µM [inhibitor, partial curve, poor fit]"
3,CCOC(=O)CSc1nnc(NC(=O)c2cc([N+](=O)[O-])cc([N+](=O)[O-])c2)s1,"inconclusive: 14.1 µM [inhibitor, partial curve]"
4,CCN(c1ccccc1)S(=O)(=O)c1c(C)nc2scc(C)n2c1=O,inactive
5,COC(=O)c1ccc(NC(=O)CSc2cn(CC(=O)N3CCCCC3)c3ccccc23)cc1,"inconclusive: 10 µM [inhibitor, partial curve]"
6,CCc1ccc(CN(C)CC(=O)Nc2ccc3c(c2)CCC3)cc1,"inconclusive: 15.8 µM [inhibitor, partial curve]"
7,COc1ccccc1NC(=O)Nc1sccc1-c1nc2ccccc2s1,"inconclusive: 14.1 µM [inhibitor, partial curve]"
8,O=C(N/N=C/c1c[nH]c2ccccc12)c1sc2ccccc2c1Cl,"inconclusive: 4.47 µM [inhibitor, partial curve]"
9,CCOC(=O)c1c(C)oc2nc(C)nc(NCCc3ccc(OCC)c(OCC)c3)c12,"inconclusive: 22.4 µM [inhibitor, single point]"
10,Cc1ccc2cccc(OCC(=O)N3CCc4ccccc43)c2n1,"inconclusive: 2.82 µM [inhibitor, full curve]"
11,Cc1nc(N=Nc2cc(S(=O)(=O)O)c3cc([N+](=O)[O-])cc(S(=O)(=O)O)c3c2)c(COP(=O)(O)O)c(C=O)c1O,active: 20 µM and active: 14.1 µM and active: 8.91 µM
12,Cc1ccc(Nc2nc(-c3ccncc3)cs2)cc1,"inconclusive: 2.82 µM [inhibitor, full curve]"
13,NC(=S)N/N=C/c1coc2c(ccc3ccccc32)c1=O,"inconclusive: 2.51 µM [inhibitor, full curve]"
14,Cc1ccc(OCC(=O)Nc2ccc(N3CCOCC3)cc2)c([N+](=O)[O-])n1,inactive
15,O=c1c2cc3c(cc2nc2sc(Nc4ccccc4)nn12)OCO3,"inconclusive: 7.94 µM [inhibitor, partial curve]"
16,O=C1c2ccccc2-c2onc3c(Oc4ccccc4)cc(O)c1c23,active: 17.8 µM
17,Cc1ccc(C(O)C2=CCCC2=O)cc1 (stereo unspecified),inactive
18,Cc1ccc(-c2nn(-c3cc(N4CCNCC4)ccc3[N+](=O)[O-])c(=O)c3ccccc23)cc1,"inconclusive: 11.2 µM [inhibitor, partial curve]"
19,CC1=C(C(=O)Nc2ccccc2Cl)C(c2cccc(O)c2)n2ncnc2N1 (stereo unspecified),inactive
20,O=C(Nc1nc(-c2cccs2)c(-c2cccs2)s1)C1CCCC1,"inconclusive: 17.8 µM [inhibitor, partial curve]"
21,O=C(Cc1ccccc1)NN1C(=O)/C(=C/c2ccccc2C(=O)O)SC1=S,"inconclusive: 20 µM [inhibitor, partial curve, poor fit]"
22,Fc1ccc(Nc2ncnc3sc4c(c23)CCC4)cc1,"inconclusive: 28.2 µM [inhibitor, partial curve, poor fit]"
23,O=[N+]([O-])c1cc(-c2nc(-c3ccncc3)no2)cc([N+](=O)[O-])c1,"inconclusive: 39.8 µM [inhibitor, single point]"
24,O=C(CS(=O)(=O)c1cccc2nsnc12)N1CCN(c2ccccc2F)CC1,inactive

row,SMILES,Potency
1,O=C(Nc1ccc(Cl)cc1)C1CCC(CNS(=O)(=O)c2ccc(Br)s2)CC1 (stereo unspecified),inactive
2,COc1ccccc1CNc1nc2ccc(C)cc2n2nnnc12,inactive
3,CC1(C)CC(=O)C(CCCN2C(=O)c3ccccc3C2=O)C(=O)C1,inactive
4,Brc1c(CSc2nncn2-c2ccccc2)nc2ncccn12,inactive
5,CCNCCCNCCCCNCCCNCC,inactive
6,CCNc1nc(NCC)nc(N/N=C/c2ccc([N+](=O)[O-])o2)n1,"inconclusive: 15.8 µM [inhibitor, partial curve]"
7,CCc1sc(NC(=O)CCC(=O)O)nc1-c1cc2ccccc2oc1=O,inactive
8,Cn1c(=O)cc(SCC(=O)NCC2CCCO2)c2ccccc21 (stereo unspecified),inactive
9,Cc1cc(C=O)c2c(c1)C=CC1(Oc3ccccc3C(=O)N1C)O2 (stereo unspecified),"inconclusive: 15.8 µM [inhibitor, partial curve]"
10,CCn1c(SCC(=O)c2ccc3ccccc3c2)nnc1-c1ccco1,"inconclusive: 4.47 µM [inhibitor, partial curve]"
11,O=C(COc1ccc(Br)cc1Br)NC(=S)Nc1cccc(CO)c1,"inconclusive: 2 µM [inhibitor, full curve]"
12,Cc1cc(C(=O)N/N=C/c2c(C)nn(-c3ccccc3)c2C)c(C)o1,"inconclusive: 2.51 µM [inhibitor, full curve]"
13,COc1ccc(C2=CC(=O)OC3(CCCCC3)O2)cc1,inactive
14,COCCNc1nc2c(c(=O)n(C)c(=O)n2C)n1Cc1c(F)cccc1Cl,inactive
15,CCOC(=O)C1CCCN(C/C=C/c2ccccc2[N+](=O)[O-])C1 (stereo unspecified),inactive
16,COc1ccccc1-n1c(N)c(C(N)=O)sc1=S,inactive
17,CCOc1ccccc1NC(=O)CCC(=O)Nc1ccc2nc(N3CCN(C)CC3)cc(C)c2c1,"inconclusive: 35.5 µM [inhibitor, single point]"
18,CCCCCOC(=O)CSc1nc2c(c(=O)[nH]c(=O)n2C)n1Cc1ccc(Cl)cc1,inactive
19,COc1ccc(N=C2C(=O)N3c4c(cccc42)C(C)=CC3(C)C)cc1,"inconclusive: 20 µM [inhibitor, partial curve]"
20,Nc1nc(SCC(=O)c2cccc([N+](=O)[O-])c2)n[nH]1,"inconclusive: 28.2 µM [inhibitor, partial curve]"
21,CCO[C@H]1OC(C(=O)NCc2ccccc2)=C[C@@H](c2coc3ccccc3c2=O)[C@@H]1CCCO,"inconclusive: 0.355 µM [activator, single point]"
22,CC1CCCC(NC(=S)NC(=O)c2cncc(Br)c2)C1C (stereo unspecified),inactive
23,C(=N\Nc1nc2ccccc2[nH]1)/c1ccc2c(c1)OCCO2,active: 3.98 µM
24,C=CCN1c2ccccc2[C@]23C[C@@H](C(=O)OC)N(C(=O)CC(C)C)C2=NC(C(=O)OC)=C(C(=O)OC)[C@H]13,"inconclusive: 39.8 µM [inhibitor, single point]"

row,SMILES,Potency
1,COc1ccc(-c2cc(C(F)(F)F)nc(SCCC(=O)Nc3ccc(NC(C)=O)cc3)n2)cc1,inactive
2,O=C(Nc1ccccc1C(F)(F)F)c1ncoc1-c1ccco1,inactive
3,Cc1ccc(NC(=O)CN(C)Cc2ccc(F)cc2)c([N+](=O)[O-])c1,"inconclusive: 25.1 µM [inhibitor, single point]"
4,O=C(Nc1nccs1)c1sc2ccccc2c1Cl,"inconclusive: 3.16 µM [inhibitor, full curve]"
5,O=C(N/N=C/c1sc(N2CCOCC2)nc1-c1ccccc1)c1ccccc1F,"inconclusive: 11.2 µM [inhibitor, partial curve]"
6,CC(NCC(O)COc1ccc(S(=O)(=O)N2CCOCC2)cc1)c1ccccc1 (stereo unspecified),inactive
7,CCc1nc(SCc2cccnc2)c(C#N)cc1C,"inconclusive: 0.0708 µM [activator, full curve, poor fit]"
8,COc1cccc(C2CC(=O)Nc3c2ccc(C)c3C)c1OC (stereo unspecified),inactive
9,Cc1cc(-c2nnc(SCC(=O)Nc3nc(-c4ccccc4)cs3)o2)no1,"inconclusive: 5.01 µM [inhibitor, partial curve, poor fit]"
10,Cc1ccc(-c2csc3nc(C)n(-n4c(C)ccc4C)c(=O)c23)o1,"inconclusive: 14.1 µM [inhibitor, partial curve]"
11,CCN(CC)c1ccc(/C=N/NC(=O)c2ccc([N+](=O)[O-])cc2)cc1,"inconclusive: 39.8 µM [inhibitor, single point]"
12,CCOC(=O)c1[nH]c(C)c(C(=O)OCC(=O)Nc2sc3c(c2C#N)CCCCC3)c1C,inactive
13,COc1ccc(-[n+]2c(C)cc(/C=C3\Sc4ccccc4N3C)cc2C)cc1,"inconclusive: 2 µM [activator, partial curve]"
14,O=C(CCC(=O)N1CC2CCCN2c2ccccc21)NCc1ccc(F)cc1 (stereo unspecified),inactive
15,Cc1cc(C)c(NC(=O)CN2C(=O)c3cccnc3Sc3ccccc32)c(C)c1,"inconclusive: 15.8 µM [inhibitor, single point]"
16,O=C(NCc1ccco1)c1cc2nc(-c3cccs3)cc(C(F)(F)F)n2n1,"inconclusive: 28.2 µM [inhibitor, partial curve]"
17,CCc1cc(C(=O)Nc2c(C)nn(Cc3ccccc3Cl)c2C)no1,inactive
18,COc1ccccc1NC(=O)c1ccc(COc2ccc3c(c2)CCC3)cc1,"inconclusive: 2.82 µM [inhibitor, full curve]"
19,Cc1cc2cc(CNC(=O)c3ccc(Br)o3)ccc2[nH]1,"inconclusive: 25.1 µM [inhibitor, single point]"
20,Cc1ccc(/C(N)=N/OC(=O)COc2ccccc2Cl)cc1,"inconclusive: 12.6 µM [inhibitor, partial curve]"
21,O=C(Nc1ccccc1F)c1ccc(Cn2nc(N3CCN(c4ccccc4)CC3)ccc2=O)o1,"inconclusive: 14.1 µM [inhibitor, partial curve]"
22,COc1cc(OC)c(NC(=O)N2CCc3c([nH]c4ccccc34)C2c2ccccc2F)cc1Cl (stereo unspecified),inactive
23,Cc1cc(Cl)c2c(c1)[C@]1(C(=O)N2)[C@@H]2C(=O)N(Cc3ccccc3)C(=O)[C@@H]2[C@@H]2CCCN21,"inconclusive: 0.708 µM [inhibitor, partial curve]"
